Experimental data from the supplement of paper PMC10126150.
Values marked as one replicate rest on one cluster of the flow cell; about a third of the high ones do not repeat.

Each sequence was assayed on ATP (assay: switch fluorescence ratio, 500 uM ATP over buffer (Cy3 cluster intensity, sum of 5 cycles each) (fold (ratio)); higher = stronger signal-on switching upon ATP binding; sequences stand for … in TCGTCGGCAGCGTCAGATGTGTATAAGAGACAGTTTTTTTTTTTTTTTTTTTTTTTTT…TC). Conditions: aptamer strand: ATP DNA aptamer (quencher-CACCTGGGGGAGTATTGCGGAGGAAGG + anchor), 100 nM annealed; ATP concentration: 500 uM; one replicate.
Method in brief: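 Imaging in selection buffer was followed by imaging after 15 min with 500 uM ATP at 22 °C, for Cy3-labelled switching-strand clusters annealed to 100 nM quencher-labelled ATP aptamer on a modified Illumina MiSeq flow-cell. Five of these buffer/ATP cycles ran, separated by NaOH stripping and re-annealing. The fluorescence ratio per cluster is summed target-cycle over summed buffer-cycle Cy3 intensity, averaged per switch-domain sequence; clusters outside 100-1000 RFU were removed.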
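Note: ATP exposure 15 min at 22 °C before imaging.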

Sequence | switch fluorescence ratio
GGGATCAGGT | 0.996
GGGATCAGTT | 1.04
GGGATCGAT | 1.04
GGGATCGCGA | 1.02
GGGATCGCGC | 1.02
GGGATCGCGT | 1.02
GGGATGAGTC | 1.01
GGGATGGGA | 0.954
GGGATTTTCA | 1.03
GGGCAACGTT | 0.976
GGGCAAGACT | 2.85
GGGCAGACGG | 0.969
GGGCAGCCTG | 1.01
GGGCAGGGG | 1.04
GGGCAGGTG | 2.67
GGGCATCTCC | 1.09
GGGCCAGCAA | 1.43
GGGCCATTAG | 1.01
GGGCCCAAAT | 0.98
GGGCCCGTGG | 0.99
GGGCCGGCTT | 1.02
GGGCCGGGG | 0.967
GGGCCTCTTA | 1.01
GGGCCTTCTT | 1.04
GGGCGACATG | 0.981
GGGCGCAGGA | 1.03

Sequence | switch fluorescence ratio
GGGCGGCGGA | 0.957
GGGCGGGTT | 0.934
GGGCGTCGAC | 0.999
GGGCGTCGTG | 0.994
GGGCGTGTAA | 1.04
GGGCGTTAGT | 1
GGGCTATTCT | 0.985
GGGCTCAGGG | 0.997
GGGCTCCCCG | 1.39
GGGCTCCGGC | 1.07
GGGCTCCGTG | 0.791
GGGCTCGTCT | 1.01
GGGCTGACTT | 0.962
GGGCTGCTCC | 2.71
GGGCTGGTTG | 0.997
GGGCTGTGAC | 1.04
GGGCTGTGAG | 0.984
GGGCTTCGAC | 0.997
GGGG | 1.01
GGGGAACTGT | 0.951
GGGGACAAGC | 1.09
GGGGACCCCA | 1.07
GGGGAGATAC | 2.31
GGGGAGTTTT | 1
GGGGATATCC | 0.964
GGGGATCTT | 0.994

Sequence | switch fluorescence ratio
GGGGATTAGC | 0.979
GGGGATTTTA | 0.993
GGGGCAACAT | 1.04
GGGGCAGGC | 0.834
GGGGCATACA | 1.05
GGGGCATCTA | 1.03
GGGGCCCCTT | 1.02
GGGGGAGATC | 1.07
GGGGGATAAC | 1.23
GGGGGATCAC | 1.03
GGGGGCAAGT | 0.933
GGGGGCCCAC | 0.994
GGGGGCTCAA | 1.03
GGGGGGCGC | 0.958
GGGGGTCGAG | 1.01
GGGGGTTGCT | 1.03
GGGGTACCGC | 0.97
GGGGTACTGT | 0.999
GGGGTCCCCC | 1.36
GGGGTCCGGG | 1
GGGGTGCAAG | 0.935
GGGGTGTCGT | 0.991
GGGTAAACGT | 1.03
GGGTACGGCA | 1.05
GGGTACTTTA | 1.01
GGGTAGCCGC | 0.987

Sequence | switch fluorescence ratio
GGGTAGCCTC | 0.992
GGGTAGCGAA | 0.945
GGGTAGGCCT | 0.955
GGGTATATCT | 0.973
GGGTATTCGT | 0.987
GGGTATTTAA | 0.956
GGGTCCTGAT | 0.993
GGGTCGCATG | 1
GGGTCGGAAG | 0.974
GGGTCGGGAC | 0.993
GGGTCGTCTG | 0.991
GGGTCTGTCG | 0.96
GGGTCTTGC | 1.01
GGGTGAACCT | 1.21
GGGTGAATGC | 1.02
GGGTGAGTT | 1
GGGTGCGAGC | 0.958
GGGTGGTACA | 0.958
GGGTGGTCGA | 1.02
GGGTGGTTGT | 0.981
GGGTGTGGGC | 0.955
GGGTTAATTA | 0.958
GGGTTACCAT | 1.05
GGGTTATGCC | 0.999
GGGTTCGCAC | 1.02
GGGTTGCTT | 0.926

Sequence | switch fluorescence ratio
GGGTTTAAAC | 1.02
GGTAAACCCT | 1.14
GGTAAATAAA | 1.01
GGTAACAGCA | 1.01
GGTAACTACA | 0.961
GGTAAGAGAA | 1.02
GGTAAGGAGC | 1
GGTAATCATA | 0.974
GGTAATCGTA | 1.02
GGTAATGGCT | 1.1
GGTAATGTAT | 0.979
GGTAATTAGA | 0.988
GGTACAACTT | 0.956
GGTACATCCG | 1.03
GGTACATGAC | 1.09
GGTACCGCTT | 1.05
GGTACCGGAT | 0.966
GGTACGGAAG | 1.05
GGTACGTATA | 1.15
GGTACTCTGG | 1.03
GGTACTGCGA | 1.09
GGTACTGTTA | 1.05
GGTACTTGCG | 1.02
GGTAGAACGA | 0.948
GGTAGAAGT | 0.977
GGTAGACCAG | 1

Sequence | switch fluorescence ratio
GGTAGAGCCG | 1
GGTAGAGTGG | 1.04
GGTAGCACA | 1.04
GGTAGGCGC | 0.991
GGTAGGGGC | 1.01
GGTAGTGAGG | 1
GGTATACTCT | 1.02
GGTATAGCTT | 0.98
GGTATCATCA | 1.02
GGTATCGCCC | 0.945
GGTATCTTGA | 0.995
GGTATCTTTG | 1
GGTATGGCGT | 1.11
GGTATTCTT | 0.998
GGTATTGCTA | 0.974
GGTATTTCCC | 1.16
GGTATTTTAT | 0.999
GGTCAAGCGT | 0.992
GGTCAAGTAT | 0.973
GGTCAATTGT | 1
GGTCACGGAC | 1.03
GGTCACGGGA | 0.997
GGTCACGGTA | 0.854
GGTCAGATCA | 1.01
GGTCAGGTTT | 1.02
GGTCATAGCC | 1.02

Sequence | switch fluorescence ratio
GGTCATTCAG | 0.975
GGTCATTCGC | 1.1
GGTCCAGGT | 1.22
GGTCCAGTTC | 1.03
GGTCCATGAT | 1.02
GGTCCCCACT | 1.01
GGTCCCGTCT | 1.04
GGTCCCTAGT | 0.974
GGTCCGGTGC | 1.26
GGTCCGTTGA | 1.03
GGTCCGTTTA | 1.02
GGTCCTGCGT | 1.03
GGTCGAACGG | 0.992
GGTCGCCGTT | 1.02
GGTCGCCTCT | 0.985
GGTCGCGTTA | 1
GGTCGGCCCT | 1.01
GGTCTAATAT | 1.03
GGTCTCATTT | 1.01
GGTCTCCACT | 0.964
GGTCTCTGCC | 1.04
GGTCTGAGCG | 1.03
GGTCTTGAAG | 0.978
GGTGAACCTA | 1.04
GGTGAATGTT | 1
GGTGACAGTG | 1.06

Sequence | switch fluorescence ratio
GGTGACGAA | 0.981
GGTGATGCAC | 1.01
GGTGATGGAT | 0.984
GGTGATTACC | 0.966
GGTGATTATG | 0.973
GGTGCAAAG | 0.978
GGTGCACGA | 0.996
GGTGCACGTG | 1.03
GGTGCAGCCG | 0.935
GGTGCAGGAA | 1.05
GGTGCAGGG | 1
GGTGCATACG | 0.991
GGTGCATTCG | 1.03
GGTGCATTCT | 1
GGTGCCGATA | 0.919
GGTGCCGGGA | 0.957
GGTGCCGTTA | 1
GGTGCGACGG | 0.98
GGTGCGATAT | 1.48
